# The campaign covered roughly 310,000 compounds. About 2,200 (0.71%) showed an effect of 50% or more. The effect is printed as a negative number. Some of the results follow.
# Target: human ether-à-go-go-related gene (hERG) potassium channel (human, UniProt Q12809)
# Test: primary screen, population patch clamp on CHO cells stably expressing hERG
# human ether-à-go-go-related gene (hERG) potassium channel, sequence (Q12809 whole entry, looked up): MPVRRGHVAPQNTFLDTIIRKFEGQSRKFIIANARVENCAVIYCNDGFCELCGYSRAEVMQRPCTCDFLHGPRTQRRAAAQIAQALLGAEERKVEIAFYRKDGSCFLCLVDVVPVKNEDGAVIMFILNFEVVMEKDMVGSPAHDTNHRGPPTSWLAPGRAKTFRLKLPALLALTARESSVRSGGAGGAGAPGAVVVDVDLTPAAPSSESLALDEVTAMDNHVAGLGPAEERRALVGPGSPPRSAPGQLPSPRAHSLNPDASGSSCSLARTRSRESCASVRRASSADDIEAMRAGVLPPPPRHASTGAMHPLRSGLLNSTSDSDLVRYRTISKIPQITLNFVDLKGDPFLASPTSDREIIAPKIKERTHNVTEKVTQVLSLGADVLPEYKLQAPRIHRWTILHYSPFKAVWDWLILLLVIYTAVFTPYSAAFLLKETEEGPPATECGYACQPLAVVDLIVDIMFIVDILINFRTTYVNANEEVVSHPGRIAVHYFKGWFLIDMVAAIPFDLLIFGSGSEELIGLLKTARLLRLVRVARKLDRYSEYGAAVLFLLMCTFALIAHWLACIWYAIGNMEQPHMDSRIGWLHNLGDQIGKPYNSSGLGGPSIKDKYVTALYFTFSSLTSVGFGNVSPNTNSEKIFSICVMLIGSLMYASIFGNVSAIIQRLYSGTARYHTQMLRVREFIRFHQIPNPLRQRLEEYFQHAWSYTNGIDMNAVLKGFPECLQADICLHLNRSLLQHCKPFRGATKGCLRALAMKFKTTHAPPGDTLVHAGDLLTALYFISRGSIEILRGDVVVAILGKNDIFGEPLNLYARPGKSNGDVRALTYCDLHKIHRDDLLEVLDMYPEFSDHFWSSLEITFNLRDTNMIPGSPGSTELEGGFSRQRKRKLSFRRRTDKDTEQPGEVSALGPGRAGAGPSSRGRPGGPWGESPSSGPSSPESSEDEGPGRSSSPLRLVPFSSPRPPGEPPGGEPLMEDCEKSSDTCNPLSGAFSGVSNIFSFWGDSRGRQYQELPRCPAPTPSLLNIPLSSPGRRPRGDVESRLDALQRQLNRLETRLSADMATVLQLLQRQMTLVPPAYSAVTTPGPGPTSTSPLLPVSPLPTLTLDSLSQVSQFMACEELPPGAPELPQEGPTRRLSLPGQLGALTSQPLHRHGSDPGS
row,Compound,"hERG current change (%, negative = inhibition) at 1uM"
1,COc1ccc(/C=C/C(=O)c2cc(Br)ccc2O)cc1OC,9.2%
2,CC(=O)Nc1sc(C)c(C)c1C(=O)OCC(=O)Nc1ccccc1,6.49%
3,COCCn1nnnc1C(C(C)C)N1CCCC(C)C1.Cl (stereo not drawn),11.5%
4,Cc1cc(C)n(CC(O)COc2ccc(C(C)(C)C)cc2)n1 (stereo not drawn),5.99%
5,COc1ccc(CNC(=O)c2sc3nc4c(c(C(F)(F)F)c3c2N)CCC4)cc1,9.64%
6,CCOC(=O)CC(NS(=O)(=O)c1ccc(NC(C)=O)cc1)c1ccc(OCC)cc1 (stereo not drawn),0.0688%
7,O=C1[C@@H]2C(c3ccccc3Cl)=NO[C@@H]2C(=O)N1Cc1ccccc1,12.6%
8,COc1cc2c(cc1OC)CN(CC(=O)Nc1ccc(C#N)cc1)CC2,-4.43%
9,N#C/C(=C\c1cccnc1)C(=O)Nc1cccc2ccccc12,6.28%
10,CC(=O)c1ccc(NC(=O)c2ccc(CSc3ccccc3)o2)cc1,9.33%
11,O=C(NCCc1ccncc1)Nc1ccc(F)cc1,14.1%
12,O=C(CSc1nc(Cc2ccccc2)nc2ccccc12)Nc1ccc2c(c1)OCCO2,-0.608%
13,CCCc1nc2c(c(=O)c3ccccc3n2C)c(=O)n1C1CCCCCC1,13.1%
14,CCn1ncc(Br)c1C(=O)Nc1ccn(C23CC4CC(CC(C4)C2)C3)n1,16.4%
15,COc1cc(Cl)c(S(=O)(=O)N2CC(C)OC(C)C2)cc1Cl (stereo not drawn),11.1%
16,O=C(OCC(=O)C12CC3CC(CC(C3)C1)C2)c1ccccn1,-6.29%
17,Cc1ccc2nc(C)cc(C(=O)OCC(=O)Nc3c(C)n(C)n(-c4ccccc4)c3=O)c2c1,5.32%
18,Cc1nc(C)c(C(=O)Nc2cccc(Cl)c2)o1,-7.49%
19,OCCN1CCN(C(=S)c2ccc(Cl)c(Cl)c2)CC1,3.47%

row,Compound,"hERG current change (%, negative = inhibition) at 1uM"
1,COc1cc(/C=N/NC(=O)CNC(=O)c2ccncc2)ccc1O,4.05%
2,CCOC(=O)c1ccccc1NC(=O)CSc1nncn1C,4.68%
3,COc1cc(CN2CCCC(CO)(Cc3ccccc3)C2)ccc1O (stereo not drawn),12.4%
4,CCn1c(SCC(=O)Nc2cc(OC)c(OC)c(OC)c2)nnc1-c1cccs1,9.28%
5,CCOC(=O)c1nn(-c2cccc(OC)c2)c2nc(CC)c(C#N)c(=O)n12,8.47%
6,CCOC(=O)CSc1nc(C2CC2)nc2ccccc12,6.23%
7,CNC(=S)NCCC(c1ccccc1)c1ccccc1,8.57%
8,NS(=O)(=O)c1cccc(NC(=O)CC23CC4CC(CC(Br)(C4)C2)C3)c1,9.12%
9,O=P(c1ccccc1)(c1nc2ccccc2s1)N1CCOCC1 (stereo not drawn),20.6%
10,COc1ccc(S(=O)(=O)NC(C)C(=O)NCc2ccccn2)cc1OC (stereo not drawn),15.4%
11,CCCCCN(C(=O)NC(=O)Nc1ccc(C)cc1C)S(C)(=O)=O,5.7%
12,CCOc1ccc(Nc2c3c(nc4ncnn24)CC(C)CC3)cc1 (stereo not drawn),-0.939%
13,CCN=c1scc(C)n1/N=C/c1cc(Br)c(O)c(Br)c1,10.3%
14,CC1(OC(=O)C2CCCC2)C(=O)C=C2C=C(c3ccsc3)N(C3CCCCC3)C=C2C1=O (stereo not drawn),2.05%
15,CC(C)C/C(=N/O)c1c[nH]c2ccccc12,1.54%
16,CCNC(=O)NC(=O)COC(=O)c1ccccc1SCC(=O)NC(=O)NCC,7.04%
17,CCOP(=O)(NC12CC3CC(CC(C3)C1)C2)NC12CC3CC(CC(C3)C1)C2,9.83%
18,Cc1ccccc1OCCN1CCCC1,15%
19,COc1cccc(NC(=O)N2CCC(NC(=O)C3CCCCC3)CC2)c1,14.8%

row,Compound,"hERG current change (%, negative = inhibition) at 1uM"
1,Cc1ccc(-c2nc(N/N=C/c3cccc([N+](=O)[O-])c3)c3ccccc3n2)cc1,8.86%
2,C/C(=N/NC(=O)CNS(=O)(=O)c1ccc(C)cc1)c1cccc([N+](=O)[O-])c1,11.2%
3,C=CCOC(=O)Nc1c(C(=O)OC)[nH]c2ccc(Cl)cc12,16.8%
4,CC1CN(c2ccccc2)CCN1Cc1nc(Cc2ccccc2)no1 (stereo not drawn),9.72%
5,CCOC(=O)C1C2C=CC3(CN(c4ccc(Cl)c(F)c4)C(=O)C13)O2 (stereo not drawn),6.9%
6,O=C(CCl)Nc1cccc(Oc2cnccn2)c1,9.26%
7,O=S(=O)(NC(=NCc1ccccc1)c1ccccc1)c1ccccc1,15.2%
8,COc1cccc(CN2CCN(S(=O)(=O)c3ccccc3)CC2)c1OC,8.69%
9,CCOc1ccc2[nH]c(C(=O)N/N=C/c3cc(OC)c(OC)c(OC)c3)cc2c1,16.6%
10,Cc1cc(Cl)ccc1OCCCC(=O)NCc1cccs1,3.76%
11,CNC(C(=O)c1ccccc1)C(OC)c1ccccc1.[O-][Cl+3]([O-])([O-])O (stereo not drawn),9.94%
12,Cc1nn(C)c(C)c1CN(C(=O)CCc1nnc(Cc2c[nH]c3ccccc23)o1)C(C)C,10.9%
13,CN(Cc1ccccc1)S(=O)(=O)c1cn(C)cn1,2.56%
14,COc1cc(NC(=O)c2ccccc2)c(OC)cc1NC(=O)Cc1cccs1,13.3%
15,COC(=O)c1cnn2c1C(=O)N(Cc1cccs1)CC2,20%
16,Cc1c(C(=O)N2CCC3(CC2)OCCO3)sc2ncnc(N3CCc4ccccc4C3)c12,9.24%
17,C[C@@H]1C(=O)O[C@H]2C[C@@]34[C@H]5C[C@@H](C(C)(C)C)[C@]36[C@@H](OC(=O)[C@@H]6O)O[C@@]4(C(=O)O5)[C@]21O,16.5%
18,Cc1occc1-c1nnc(SCC(=O)Nc2nc(C(C)(C)C)cs2)o1,2.65%
19,COCCn1c(=NC(=O)c2cccs2)sc2cc(NC(C)=O)ccc21,0.283%

# Reference: PMC4336329 (PLoS ONE, 2015)
